For this series, the system named is ATP. The experiment in a line: switch fluorescence ratio, 500 uM ATP over buffer (Cy3 cluster intensity, sum of 5 cycles each) (fold (ratio)); higher = stronger signal-on switching upon ATP binding; sequences stand for … in TCGTCGGCAGCGTCAGATGTGTATAAGAGACAGTTTTTTTTTTTTTTTTTTTTTTTTT…TC. The note with it: aptamer strand: ATP DNA aptamer (quencher-CACCTGGGGGAGTATTGCGGAGGAAGG + anchor), 100 nM annealed; ATP concentration: 500 uM; one replicate. Summed up:
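Per cluster, summed Cy3 intensity from the target cycles was divided by that from the buffer cycles to give the fluorescence ratio, then averaged per switch-domain sequence. Clusters outside 100-1000 RFU were excluded. The Cy3-labelled switching-strand clusters, on a modified Illumina MiSeq flow-cell, were annealed to 100 nM quencher-labelled ATP aptamer and imaged in selection buffer, then after 15 min with 500 uM ATP at 22 °C, for five cycles with NaOH stripping and re-annealing between them.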

Sequences with one replicate were seen in a single cluster, so their values are uncertain.
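Also: ATP exposure 15 min at 22 °C before imaging.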

GAAAGTGTT: the switch fluorescence ratio is 0.992.

For CATTCTTCCT, the switch fluorescence ratio was found to be 1.34.

In the case of TAAACAGCGC, the switch fluorescence ratio came out at 1.01.

Consider AGCAGCTGAG, for which the switch fluorescence ratio worked out at 0.968.

As to CTCTCGGGCA, the switch fluorescence ratio was 1.14.

As for GGGCGGTGT, the switch fluorescence ratio is 1.

For AAGTGCAAGT, the switch fluorescence ratio is 1.01.

GACGAGTCGT: the switch fluorescence ratio was 0.986.

In the case of ATAGTTTTC, the switch fluorescence ratio is 0.967.

For CATAAATTTG, the switch fluorescence ratio came to 0.96.

On to TAAGGACCCG, for which the switch fluorescence ratio amounted to 1.03.

As to TTTAATCTAG, the switch fluorescence ratio came to 1.02.

For the sequence TGTTCGTAT, the switch fluorescence ratio turned out to be 0.983.

With TGCAAAATAG, the switch fluorescence ratio was 0.972.

Turning to TTCGGGGACC, the switch fluorescence ratio is 0.954.

For the sequence CCAGATTATA, the switch fluorescence ratio was 1.01.

Consider GACATTCAAG, for which the switch fluorescence ratio turned out to be 1.

As for GGACTAAACT, the switch fluorescence ratio was 0.998.

Consider TCGAAAAGAT, for which the switch fluorescence ratio is 0.978.

Take ATATTTCTCT: the switch fluorescence ratio was found to be 0.968.

In the case of GTGTGGGCGG, the switch fluorescence ratio was found to be 1.08.

For the sequence TGTGTAATCA, the switch fluorescence ratio came out at 1.02.

Consider AGGGCAAGAT, for which the switch fluorescence ratio worked out at 1.16.

Regarding TTTGTAATAT, the switch fluorescence ratio came out at 1.12.

GAGGAGAGCG: the switch fluorescence ratio worked out at 1.02.

Turning to ACATATGGGG, the switch fluorescence ratio turned out to be 0.98.

Regarding TACCGGGCCT, the switch fluorescence ratio is 0.998.

As for AAGTGATACA, the switch fluorescence ratio was determined as 0.967.

Take AGCGACTATA: the switch fluorescence ratio is 1.07.

As for GATCTTTATC, the switch fluorescence ratio was 1.01.

With GAGTGTCATT, the switch fluorescence ratio turned out to be 0.949.

With CAGCTGAATG, the switch fluorescence ratio was 0.952.

ACACTAACCC: the switch fluorescence ratio is 1.24.

Consider TAGTAACGGG, for which the switch fluorescence ratio was 1.02.

For CCTCTTCGGT, the switch fluorescence ratio is 1.1.

As for ACGGGGTAGG, the switch fluorescence ratio was 1.01.

As for TGTTTTCGGC, the switch fluorescence ratio was 0.998.

Turning to ACGTCGCAGA, the switch fluorescence ratio worked out at 1.08.

GTTGAATAGG: the switch fluorescence ratio came to 1.

As for AGGGGCCTAC, the switch fluorescence ratio was 1.02.

Regarding TACCCCGCT, the switch fluorescence ratio turned out to be 1.25.

TAGAAATCAT: the switch fluorescence ratio is 0.952.

Consider TGTCATCTAG, for which the switch fluorescence ratio amounted to 0.969.

On to TAAAACAGTA, for which the switch fluorescence ratio worked out at 0.995.

In the case of CGCTTTGGTC, the switch fluorescence ratio turned out to be 1.88.

As for TTGGGCGGAC, the switch fluorescence ratio worked out at 1.02.

For the sequence GAGAACTTTA, the switch fluorescence ratio is 0.997.

For the sequence ATTGTACTT, the switch fluorescence ratio stood at 1.01.

For the sequence CTGTAAAAGT, the switch fluorescence ratio is 1.01.

Consider CGAAATGCCA, for which the switch fluorescence ratio is 1.01.

With CCGCGGAATT, the switch fluorescence ratio was 0.98.

CCTACTACGG: the switch fluorescence ratio came out at 1.11.

For the sequence CCTCTTATGT, the switch fluorescence ratio came to 1.04.

AGGATCTCCG: the switch fluorescence ratio came to 0.992.

Consider CGACTGTATG, for which the switch fluorescence ratio was found to be 0.994.

Turning to CCATAATTCT, the switch fluorescence ratio amounted to 1.

On to TCCATCACTT, for which the switch fluorescence ratio came to 1.01.

Consider ACCGGGAATG, for which the switch fluorescence ratio is 0.996.

For the sequence ATAGCGTCGG, the switch fluorescence ratio came to 0.96.

In the case of CCATGTCGGG, the switch fluorescence ratio was 0.968.

On to GCCCGCGCGC, for which the switch fluorescence ratio amounted to 1.1.

On to TGGATAGGGC, for which the switch fluorescence ratio worked out at 1.04.

For GCCCGGTATG, the switch fluorescence ratio was found to be 1.

Regarding CTTATTGTAT, the switch fluorescence ratio amounted to 0.998.

Take AGGGAATTCA: the switch fluorescence ratio came to 1.

On to TGCAGAGGGG, for which the switch fluorescence ratio is 0.974.

For the sequence GCGTATTACT, the switch fluorescence ratio was determined as 1.22.

Turning to TATTGGGACA, the switch fluorescence ratio stood at 0.988.

Turning to AGATCGGTCT, the switch fluorescence ratio came to 0.954.

Take GTGGTAACGC: the switch fluorescence ratio worked out at 0.978.

CCGACCTGGG: the switch fluorescence ratio was determined as 1.16.

Regarding TCCGGATAT, the switch fluorescence ratio was found to be 1.17.

For AACATGCATA, the switch fluorescence ratio was 1.06.

For the sequence GTGGTAGTGC, the switch fluorescence ratio was 0.977.

As for ATGTGCGGAT, the switch fluorescence ratio came to 1.03.

Regarding CGCATCGATG, the switch fluorescence ratio came out at 1.02.

GCTTATATGC: the switch fluorescence ratio turned out to be 1.02.

Turning to GACATTACGC, the switch fluorescence ratio is 1.28.

In the case of AACGCATTTA, the switch fluorescence ratio amounted to 1.12.

In the case of GGTGCGACGC, the switch fluorescence ratio was found to be 1.03.

Regarding TCAAGGAGAA, the switch fluorescence ratio stood at 1.01.

Turning to ATGTATGCTC, the switch fluorescence ratio turned out to be 1.01.

As to CCGGTCCGTG, the switch fluorescence ratio amounted to 1.06.

For the sequence TGTTGAGAGA, the switch fluorescence ratio worked out at 1.

Regarding CCCAGGCCGC, the switch fluorescence ratio came to 1.22.

For TGAGTGGAGT, the switch fluorescence ratio is 0.962.

AGGTAGCCTG: the switch fluorescence ratio was 0.983.

In the case of GGAACCGCCG, the switch fluorescence ratio stood at 0.995.

GCGTGGGTCT: the switch fluorescence ratio came to 1.05.

On to AAGCGTGGCT, for which the switch fluorescence ratio stood at 0.974.

Turning to GTAGCGTATT, the switch fluorescence ratio turned out to be 1.03.

As to TATAGACGG, the switch fluorescence ratio was 0.959.

Take CAGTACGCAG: the switch fluorescence ratio came out at 1.05.

TAAGGAAGT: the switch fluorescence ratio was found to be 0.987.

AAAGGTACG: the switch fluorescence ratio is 0.922.

Take GTTCCTGCCA: the switch fluorescence ratio worked out at 1.12.

CTTACTGCCT: the switch fluorescence ratio is 1.24.

As for GGCTATTCGG, the switch fluorescence ratio stood at 0.989.

As for GATTAGGTAG, the switch fluorescence ratio was determined as 0.991.

For the sequence AATTCGTGTA, the switch fluorescence ratio is 0.982.

As to GATTAACCTC, the switch fluorescence ratio stood at 1.04.

With ACCGCGGGTA, the switch fluorescence ratio was 1.08.

AGCTAAGAAA: the switch fluorescence ratio was found to be 1.01.

Consider TTTACGCCCT, for which the switch fluorescence ratio worked out at 1.11.

For the sequence CTATTGAGGG, the switch fluorescence ratio is 1.01.

On to TCGAACACAA, for which the switch fluorescence ratio came out at 2.89.

Take TATACATATA: the switch fluorescence ratio was found to be 1.

For CATGGCGTTG, the switch fluorescence ratio came to 0.988.

ATCATGGGTG: the switch fluorescence ratio is 1.11.

With GCATGCTCTC, the switch fluorescence ratio was found to be 1.18.

For the sequence CTAATTACAC, the switch fluorescence ratio came to 1.05.

For ATCTGCGAGT, the switch fluorescence ratio amounted to 1.

AGACTATCAG: the switch fluorescence ratio was determined as 1.03.

Consider AAGGTACTAG, for which the switch fluorescence ratio is 1.07.

Take GGATCACGGG: the switch fluorescence ratio was determined as 0.978.

Take CGGTACTACA: the switch fluorescence ratio was 1.06.

Take TTCCACAAAC: the switch fluorescence ratio worked out at 1.22.

Take CTTTGTTGCT: the switch fluorescence ratio was determined as 0.993.

Consider CTGACCTAAG, for which the switch fluorescence ratio is 0.987.

As to TACTTAGAGT, the switch fluorescence ratio stood at 1.

For the origin of these results see the supplement of paper PMC10126150.
